In all, about 33,000 sequences were measured (“E-score (-0.5 to 0.5)”: median about -0.054, highest 2% from about 0.35 on). This is one part of the list.
Target: T1, Stb5 (UniProt P38699)
T1 sequence: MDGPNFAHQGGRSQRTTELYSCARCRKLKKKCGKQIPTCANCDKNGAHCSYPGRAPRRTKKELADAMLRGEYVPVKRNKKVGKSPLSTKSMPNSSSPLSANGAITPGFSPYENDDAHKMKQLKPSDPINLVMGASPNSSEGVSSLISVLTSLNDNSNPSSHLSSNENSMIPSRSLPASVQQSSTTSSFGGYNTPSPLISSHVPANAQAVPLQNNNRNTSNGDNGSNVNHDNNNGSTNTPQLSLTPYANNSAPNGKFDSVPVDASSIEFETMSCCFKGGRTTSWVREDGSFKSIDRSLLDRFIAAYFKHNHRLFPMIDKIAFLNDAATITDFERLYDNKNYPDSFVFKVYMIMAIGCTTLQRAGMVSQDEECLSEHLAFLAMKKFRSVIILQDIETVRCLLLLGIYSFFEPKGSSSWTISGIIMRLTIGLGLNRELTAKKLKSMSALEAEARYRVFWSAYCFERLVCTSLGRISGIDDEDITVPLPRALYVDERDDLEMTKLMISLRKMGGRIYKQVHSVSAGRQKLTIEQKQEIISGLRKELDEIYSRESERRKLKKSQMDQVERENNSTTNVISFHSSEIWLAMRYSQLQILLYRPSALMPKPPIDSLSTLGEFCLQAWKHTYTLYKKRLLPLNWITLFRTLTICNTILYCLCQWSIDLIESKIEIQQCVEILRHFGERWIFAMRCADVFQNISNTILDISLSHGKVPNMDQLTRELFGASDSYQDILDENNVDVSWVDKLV
Assay: PBM E-score (8-mer binding enrichment) (E-score (-0.5 to 0.5)); higher = stronger / more preferred TF binding; most listed sequences are background and not binding sites
Conditions: protein concentration: 200 nM; construct: GST-full length
Procedure: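 Universal 'all 10-mer' protein binding microarrays (Agilent AMADID 015681) probed with GST-tagged S. cerevisiae TFs (full-length or DBD) made by in vitro transcription/translation (PURExpress), about 100-200 nM. Bound TF was detected with fluorescent anti-GST. Each ungapped 8-mer (which stands for itself and its reverse complement) is scored by the PBM enrichment score (E-score), a modified Wilcoxon-Mann-Whitney statistic from -0.5 to +0.5, computed with the Universal PBM Analysis Suite. Scale: above 0.35 generally sequence-specific binding.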

Sequence	PBM E-score
GTTGATCA	-0.14
CCAAAAGG	-0.31
CCTCAATC	-0.0673
ACATAATA	0.0339
GTGGGTGA	-0.0527
GAAACCGA	0.149
ACTGATGA	-0.191
AATCTAGG	-0.16
AGCGTGTA	-0.0367
ACAGTGTG	-0.278
AAGGAGCT	-0.0779
CTACATGC	-0.179
GTCGTATA	-0.0424
CCAGACGA	-0.199
ATCTGGCA	-0.09
ACGGCAAG	-0.121
ACTTGGAA	-0.158
AATGCCAC	-0.0701
GCAAAGAC	-0.0627
AAACTTCG	0.00189
AACAGACG	0.0239
ACATCGGC	0.266

Sequence	PBM E-score
GCATTCAC	0.17
ACAATAGT	0.0234
AAGAATAA	0.0987
GGGACATA	0.132
CCTTGTCG	-0.131
ATCTCATG	-0.131
AGGGCTCC	-0.087
AACTCAAG	-0.241
CGAAAGCG	0.0309
GCGACCCC	0.111
ACTTGGCG	-0.14
AGTTGGTA	-0.095
AAGAATAG	-0.0458
AATGGAAC	-0.102
ACCAGAGC	-0.135
GACAGGCC	-0.126
CGAAAGGC	0.263
GCGGCAGA	0.135
AGTTTGCC	-0.0358
AAAATTGA	-0.0781
CTACTGTA	-0.0223
TGGTCTAA	-0.13

Sequence	PBM E-score
CCCTACCA	-0.00019
CGCCGGTC	0.346
CCGAGCCC	0.00911
ATAGTTAA	-0.0344
GAAAGGAC	0.0991
GTTGAGCA	-0.0536
GACAGCTC	-0.229
GATTGTGA	-0.0335
TACTCTCA	-0.276
CGAAGCGC	0.161
CGTTTAAC	0.0256
ACTAAACT	-0.102
AATTGGCT	-0.076
ATGACAAA	-0.305
CGAGCTAG	-0.112
AAGCCACC	-0.0661
CCTGAGAG	-0.241
ACCCGTTC	0.196
AACCGCAT	0.0436
ATCGCGAC	-0.0417
AGTTCGCA	-0.0245
CCCAACGG	0.321

Sequence	PBM E-score
AGAGGACA	-0.204
ATCTAACC	-0.0185
CGAAGGCG	0.0834
GTGTCATA	0.0744
CCCCGGAG	0.343
GTCACAAA	0.00191
AATTCTCT	-0.088
CAGTTTGA	0.0383
ACACCTGT	0.0542
GCCGCTCC	0.341
AAGGCGCT	0.109
CGCTGCAA	-0.0161
TATAAACA	-0.0188
CGCTGACG	0.142
TATGTGCA	-0.117
AAATTAAA	0.0432
ACTGGCCA	-0.259
GTCTCCGA	0.23
ACGAAACA	-0.163
AATCTGCC	0.0955
GTCTGCCA	-0.175
GTACCCTA	-0.183

Sequence	PBM E-score
AACGTCTT	-0.229
GCATCAGA	0.0292
TAAGCGGA	0.209
CGTTAGCC	0.0801
ACGCCACT	-0.0745
CCCAACCC	-0.148
CAGAACTA	0.0155
ATCCAATA	-0.252
AGCTACCG	0.0952
AGTGTACG	-0.0815
CCGTTCTC	0.182
AGAGGGTA	-0.252
AACTGCTG	-0.198
AAATAGGA	0.0364
CGCAGCCG	-0.0573
CACTGACG	-0.00028
GATAATTA	0.121
CGCTCAAA	0.0732
CTGCTTAA	-0.0795
CTGCCCAG	-0.0951
CCAGTTAG	-0.368
CTGAAGTA	-0.0991

— the supplement of paper PMC3334620
